Assay results taken from PubChem BioAssay AID1569 (National Center for Advancing Translational Sciences (NCATS), 2009).
The inconclusive results got no clear call from the source; some entries with a clear call stand among them for comparison. Potencies of inconclusive entries are doubtful fits and often do not repeat. The source made the active and inactive calls. Calls follow the shape of the dose curve; as a rule, active = well fitted inhibition curve with a large enough effect; inconclusive = small, poorly fitted or top-dose-only effect, or effect the other way, or another doubt; inactive = no such curve, though single readings can be large or run the other way.

test: Confirmation Concentration-Response Assay for lipid storage modulators; conditions: Drosophila S3 cells, lipid droplet BODIPY/CellTracker ratio, 18-24 h; series mostly up to 46.1 µM; also: nearly all actives have a fitted effect of over 80% in size
Method in brief: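 Cells at 5,000/well received compound as a titration plus oleic acid (added as 400 uM solution) and were incubated 18–24 h at 24 °C. BODIPY 493/503 lipid signal and CellTracker Red cell count were read by 488-nm laser-scanning cytometry. Activity was normalised to 20 uM Triacsin C.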
Potency is read from the fitted curve at half-maximal effect; tags tell the direction and shape of the fitted curve.

Compound | Potency
O=C(Nc1ccc(Cl)c(Cl)c1)Nc1ccc(Br)cc1F | active: 8.88 µM
COc1ccc(CCNC(=O)CSc2ccc(-c3ccccc3)nn2)cc1OC | inconclusive: 0.0996 µM [activator, full curve, poor fit]
CCOc1ccc(CCNC(=O)c2cc3sccc3n2CC)cc1OCC | active: 0.199 µM
CN1CCN(C(=O)C2(NC(=O)NCc3ccccc3)CCCCC2)CC1 | inactive
c1cncc(CNc2ccc3c(c2)OCO3)c1 | inconclusive: 3.53 µM [activator, partial curve]
COc1ccc(-c2cnc(SCC(=O)Nc3nc(C(C)(C)C)cs3)n2Cc2ccco2)cc1 | active: 0.705 µM
COc1ccc(C(=O)COC(=O)c2cncc(Br)c2)cc1 | inconclusive: 28.1 µM [activator, partial curve, poor fit]
Cc1ccc(S(=O)(=O)NCCC2=CCCCC2)cc1C(N)=O | active: 22.3 µM
O=C(CCc1ccncc1)NC1CCCc2c1cnn2-c1ccc(F)cc1F (centres undefined) | inconclusive: 1.99 µM [activator, partial curve, poor fit]
COc1ccc(CCNC(=O)CC(c2ccccc2)c2cccc(C)c2O)cc1OC (centres undefined) | inconclusive: 1.41 µM [activator, full curve, poor fit]
CCC1(C)Cc2nc3[nH]c(=S)n(-c4ccccc4C)c(=O)c3cc2CO1 (centres undefined) | inconclusive: 0.445 µM [falling, full curve]
c1ccc2nc(-c3nc4ccccc4[nH]3)ccc2c1 | inconclusive: 0.223 µM [activator, full curve]
O=C(Nc1ccccc1SCC1CSc2nc3ccccc3c(=O)n21)c1cccc(Cl)c1 (centres undefined) | inconclusive: 12.5 µM [activator, partial curve]
CC1CCCCN1c1ccc(N)cc1C(N)=O (centres undefined) | inactive
COc1ccc(CCNC(=O)C(=O)NCc2ccccc2)cc1OC | inconclusive: 6.28 µM [activator, full curve]
Cc1ccc(C)c(-c2nc3ccc(N)cc3[nH]2)c1 | inconclusive: 3.97 µM [activator, partial curve]
COc1ccc(/C=C\C(=O)NCc2ccc3[nH]c(C)cc3c2)cc1OC | active: 4.45 µM
Cc1c(Cl)cccc1NC(=O)CNC(=O)Cc1c[nH]c2ccccc12 | inconclusive: 7.91 µM [activator, partial curve]
COc1ccc(CCNC(=O)CSc2ccc(-c3cccs3)nn2)cc1OC | inconclusive: 4.99 µM [activator, partial curve, poor fit]
CC(C)Cn1c(=O)c(C(=O)NCc2ccccn2)c(O)c2ccccc21 | inconclusive: 7.91 µM [activator, partial curve]

Compound | Potency
CNc1cccc2c1C(=O)c1ccccc1C2=O | active: 6.28 µM
Cn1c(CS(=O)Cc2c(Cl)cccc2Cl)nnc1SCc1c(Cl)cccc1Cl (centres undefined) | inconclusive: 14.1 µM [activator, partial curve]
CC(=O)Nc1cccc(C(=O)NC2CCCc3c2cnn3-c2ccccc2F)c1 (centres undefined) | active: 14.1 µM
O=C(Nc1ccc2c(c1)OCO2)NC1CCN(Cc2ccccc2)CC1 | inconclusive: 7.05 µM [activator, partial curve, poor fit]
COC(=O)c1cc(C)sc1NC(=O)CC1Nc2ccccc2NC1=O (centres undefined) | inconclusive: 9.96 µM [falling, full curve, poor fit]
COc1ccc(-c2csc(NC(=O)CSc3nnc(Nc4ccccc4C)s3)n2)cc1 | inconclusive: 0.56 µM [falling, full curve]
COc1ccc(CCn2c(-c3ccco3)nc3ccccc3c2=O)cc1OC | inconclusive: 0.281 µM [activator, full curve]
COc1ccc(CCNC(=O)c2ccccc2NC(=O)c2ccco2)cc1OC | inconclusive: 12.5 µM [activator, partial curve]
Cc1ccc(C(C(=O)NC2CCCCC2)N(Cc2ccco2)C(=O)Cc2c[nH]c3ccccc23)o1 (centres undefined) | active: 4.45 µM
Cc1cc(C(=O)N2CCN(c3cccc(Cl)c3)CC2)c(C)o1 | inconclusive: 14.1 µM [activator, partial curve]
CCOC(=O)c1cc2c(ccn2-c2ccc(F)cc2)n1CC(=O)N(CC)CC | active: 2.17 µM
c1ccc2c(c1)nc(Nc1ccc3c(c1)OCO3)c1nnnn12 | inconclusive: 1.41 µM [activator, full curve]
CCCCCCCCn1c(=O)c(C(=O)OC)c(N)c2ccccc21 | active: 7.91 µM
COc1ccc(NC(=O)NC2(C(=O)N3CCOCC3)CCCCC2)cc1 | inactive
O=C(NC1CCCc2c1cnn2-c1ccc(F)cc1F)c1cnccn1 (centres undefined) | active: 0.445 µM
CCOC(=O)C1CCN(C(=O)C2(NC(=O)Nc3cccc(F)c3)CCCCC2)CC1 | active: 3.97 µM
CNC(=O)NC(=O)C(C)OC(=O)c1c2c(nc3ccccc13)/C(=C/c1cccs1)CC2 (centres undefined) | active: 0.141 µM
COc1nc(Nc2nc3ccccc3c(=O)[nH]2)nc2ccc(C)cc12 | active: 2.17 µM
COc1cc2c(C(=O)N3CCN(c4cccc(Cl)c4)CC3)cn(C)c(=O)c2cc1OC | inconclusive: 2.5 µM [activator, full curve]
